Assay results as given in PubChem BioAssay AID493208 (National Center for Advancing Translational Sciences (NCATS), 2011).
Out of some 44,000 compounds screened, about 340 (0.77%) were called active. About 5% were inconclusive and are not listed. The call rests on the fitted dose curve; in most records, active means well fitted inhibition curve with a large enough effect; inconclusive means small, poorly fitted or top-dose-only effect; inactive means flat fitted curve, though single readings scatter. The list shows a part of the results.

Test: Acumen qHTS Assay for Inhibitors of the mTORC1 Signaling Pathway in MEF (Tsc2-/-, p53-/-) Cells: Sytravon;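 further: plate controls were DMSO for no effect and rapamycin for full effect; nearly all actives have a fitted effect of over 50% in size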
Conditions: phospho-rpS6 immunofluorescence/PI, 24 h; series mostly up to 38.3 µM; activity change, negative = inhibition: at the top concentration
How it was run: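 Plate MEFs (Tsc2-/-, p53-/-, empty vector) in DMEM/10% FBS; after 24 h add compound, incubate 24 h at 37 degree Celsius; fix in PFA/TX-100, block, stain phospho-rpS6 and 10 uM PI; scan at 488 nm; report % positive cells.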

Activity change, negative = inhibition, inactive:
COCCn1c(C)cc(O)c(C(c2cccc(F)c2)N2CCN(c3ccccc3)CC2)c1=O (stereo unspecified) -9.2%
CCc1cccc(C)c1NC(=O)c1cc(CN2CCCC2)on1 1.07%
CC(C)NC(=O)C1CCCN(S(=O)(=O)c2ccc3c(ccn3C)c2)C1 (stereo unspecified) 4.64%
Cc1ccc(OCCCC(=O)Nc2sc3c(c2C(N)=O)CCC(C)C3)cc1 (stereo unspecified) -4.2%
COc1ccc(N(CC(=O)N2CCN(c3cccc(Cl)c3)CC2)S(=O)(=O)c2c(C)noc2C)cc1 -11.6%
CCOc1ccc(C(=O)N2CC(=O)Nc3ccc(F)cc3C2c2ccc(F)cc2)cc1 (stereo unspecified) 1.73%
COc1ccc(-c2oc3ncn4nc(COc5ccc(Cl)cc5)nc4c3c2-c2ccc(OC)cc2)cc1 7.71%
CCc1nnc2c(Nc3cc(OC)c(Cl)cc3OC)nc3ccccc3n12 -0.843%
O=C(Nc1ccc2oc(-c3cccc4c(Br)cccc34)nc2c1)c1cccc(Cl)c1 -7.65%
CC(C)(C)C1CCc2c(sc(NC(=O)c3cc(-c4ccc(F)cc4)on3)c2C#N)C1 (stereo unspecified) -17.2%
CCC(C(=O)NCCc1ccc(OC)c(OC)c1)n1nc(C)c2sc3ccccc3c2c1=O (stereo unspecified) -6.44%
Cc1cc(C)cc(-n2ccn3cnnc3c2=O)c1 -19.6%
Cc1ccc(OCC(=O)OCc2cc(=O)n3nc(C4CC4)sc3n2)cc1C 0.104%
CCCN(c1ccccc1F)S(=O)(=O)c1cc(-c2cc(C)no2)ccc1C -10.6%
CSc1cccc(Nc2cc(C(=O)NC3CCCCC3)c3ccccc3n2)c1 -17.5%
CCc1ccc2occ(CC(=O)Nc3c(C(=O)c4ccc(F)cc4)oc4ccccc34)c2c1 0.683%
Cn1nc(-c2ccccc2)c(-c2ccccc2)c(C(=O)Nc2ccccc2C(N)=O)c1=O -5.82%
CN(C)c1ccc(-c2nc3ccc(Cl)cn3c2Nc2ccc3c(c2)OCCO3)cc1 0.029%
CCCN(CCC)c1cc(C)nc2nc(-c3ccc(C(C)(C)C)cc3)nn12 2.63%
Cc1cc(C)cc(N2C(=O)CSC23C(=O)N(CC(N)=O)c2ccccc23)c1 (stereo unspecified) 0.561%
CCOCCCNC(=O)Cn1ncc2c([nH]c3ccc(C)cc32)c1=O 1.03%
Cc1ccc(C)c(N2CCN(C3(c4ccccc4)C(=O)c4ccccc4C3=O)CC2)c1 14.6%
COCCN(Cc1ccc(C)c(Br)c1)S(=O)(=O)c1ccc2[nH]c(=O)ccc2c1 -0.181%
CCOC(=O)c1ccc(NC(=O)c2cc(=O)c3ccc(C)c(C)c3o2)cc1 2.89%
CC(=O)N1CCc2cc(Br)cc(S(=O)(=O)CCC(=O)N3CCN(c4cccc(C)c4C)CC3)c21 -10.4%
CCc1ccccc1NC(=O)N1CCN(Cc2nc3ccc(C)cc3o2)CC1 0%
COCCn1c(C)cc(O)c(C(c2ccccc2)N2CCCCC2)c1=O (stereo unspecified) -9.25%
CC(C)Cc1nn2c(=O)cc(COC(=O)c3cccc(NC(=O)c4ccccc4)c3)nc2s1 0%
COc1ccc(NC(=O)c2cc(C3CC3)nc3c2c(C)nn3-c2ccccc2)c(OC)c1 6.04%
CCCN(CCC)CCNC(=O)c1cc2c(=O)oc3ccc(C)cc3c2s1 -1.66%
Cc1c(C(=O)Nc2cccc(C(F)(F)F)c2)sc2nc3n(c(=O)c12)CCC3 0.659%
Cc1cccc(Cn2cc3c(=O)n(CC(=O)Nc4cccc(C)c4C)nc-3c3cc(F)ccc32)c1 -2.16%
Cc1cccc(N2CCN(C(=O)c3cc4ccc5cccnc5c4[nH]3)CC2)c1C -16.6%
CCOCCCNC(=O)Cn1ncc2c([nH]c3ccccc32)c1=O -2.64%
Clc1ccccc1CNCCCSc1nnnn1-c1ccccc1 -6.17%
CCOc1ccc(/C=C/c2nc(C#N)c(NCc3ccc(OC)cc3)o2)cc1 0.45%
Cc1noc(C)c1S(=O)(=O)N(CC(=O)Nc1ccc(C(F)(F)F)cc1)c1ccc(C(C)C)cc1 0.194%
CCN(CC)S(=O)(=O)c1ccc2c(c1)N(CC(=O)Nc1cccc(C)c1C)C(=O)C1CCCN21 (stereo unspecified) -5.76%
COC(=O)c1ccc(NC(=O)C(=O)NCCc2csc3nc(-c4ccccc4F)nn23)cc1 0%
O=C(NCc1ccc2c(c1)CCN2C(=O)c1ccc(F)cc1)c1c(F)cccc1F -1.74%
COc1cccc(-c2noc(-c3cc4ccccc4oc3=O)n2)c1OC -1.65%
CCOc1ccccc1NC(=O)CSc1cn(CC(=O)N2CCCCCC2)c2ccccc12 1.39%
COc1cc(OC)c(NC(=O)C(CC(C)C)N2Cc3ccccc3C2=O)cc1Cl (stereo unspecified) 2.31%
Cc1ccc(NC(=O)CCN2C(=O)c3ccccc3Sc3ncccc32)cc1 -11.7%
COc1ccc(C)cc1NC(=O)CSc1ncc2c(n1)-c1ccc(Cl)cc1N(Cc1ccccc1)S2(=O)=O 2.67%
CC1=C(C(=O)Nc2ccccc2)C(c2ccc(F)cc2)n2nc(SCc3cc(C)ccc3C)nc2N1 (stereo unspecified) 0.181%
Cc1ccc(-c2nonc2NC(=O)c2ccco2)cc1C -7.32%
COc1cc(CNc2ccc3[nH]c(=O)[nH]c3c2)cc(Cl)c1OCc1ccccc1F -14.4%
Cc1ccc(-c2nc3ccccc3[nH]2)cc1NC(=O)COc1cccc(C)c1C -12.6%
Cc1oc(C)c2c(=O)cc(-c3ccc4c(c3)OCO4)cc(OC(=O)c3ccc(Cl)cc3)c12 -8.7%
Cc1ccc(-c2nn(CC(=O)Nc3cccc(C(F)(F)F)c3)c(=O)c3ccccc23)cc1 -3.92%
Cc1ccc(CNC(=O)c2ccc3c(c2)N(Cc2cccc(C)c2)C(=O)CS3)cc1 -26.9%
Cc1cccc(C)c1NC(=O)CSCc1cnn(-c2ccccc2)c1-n1cccc1 2.22%
COc1ccccc1Cn1c(CNS(=O)(=O)c2cccc([N+](=O)[O-])c2)nc2cccnc21 -4.63%
CCC(Sc1nc2ccccc2c2nc(CCc3c(C)n[nH]c3C)nn12)C(=O)Nc1ccccc1F (stereo unspecified) 0.569%
COc1ccc(C)cc1NC(=O)CCn1nc(C)cc1C 0%
CCN(CC)C(=O)C1=C(C)Nc2nc3ccccc3n2C1c1cccc(Cl)c1 (stereo unspecified) -8.98%
COC(=O)c1ccc(NC(=O)CSc2n[nH]c(CC(C)C)n2)cc1 0.193%
COc1ccc(CNC(=O)c2cc3cccc(OC)c3oc2=O)cc1 -8.78%
CCn1cc(C(=O)N2CCN(c3ccc(OC)cc3)CC2)c(=O)c2cc(S(=O)(=O)N(C)C3CCCCC3)ccc21 -0.167%
COc1cccc(CNC(=O)c2nn(C)c3c2CS(=O)(=O)c2ccccc2-3)c1 2.82%
